According to PubChem BioAssay AID624417 (National Center for Advancing Translational Sciences (NCATS), 2012):
Hit rate of the full screen: of about 410,000 compounds, about 6,400 (1.6%) were called active. The inconclusive results got no clear call from the source; some entries with a clear call stand among them for comparison. Calls come from the whole dose curve; as a rule, active = well fitted inhibition curve with a large enough effect; inconclusive = small, poorly fitted or top-dose-only effect; inactive = no such curve, though single readings can be large or run the other way. No potency is given beside an inconclusive call; the fits are too rough.

What follows are compounds tested against Glucagon-like peptide 1 receptor (Homo sapiens) (UniProt P43220) (assay: qHTS of GLP-1 Receptor Inverse Agonists (Inhibition Mode)). Conditions: HEK293 GLP-1R CRE-luciferase, luminescence, 24 h, GLP-1R form is constitutively active; activity change, negative = inhibition: at 38.3 µM (top of the series) unless noted.
In short: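 Luminescence readout: a drop in cAMP-driven luciferase signal flags inverse agonism at a constitutively active GLP-1R stably expressed in HEK293. Compound exposure lasted 24 hr at 37 deg C, 5% CO2.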
% is set by controls: 0 for no effect and ±100 for the full control effect; potency is the fitted concentration of half-maximal effect; tags give direction and shape of the fitted curve.
Note: nearly all actives have a fitted effect of over 55% in size.

Chain of UniProt P43220 (P43220 whole entry, looked up): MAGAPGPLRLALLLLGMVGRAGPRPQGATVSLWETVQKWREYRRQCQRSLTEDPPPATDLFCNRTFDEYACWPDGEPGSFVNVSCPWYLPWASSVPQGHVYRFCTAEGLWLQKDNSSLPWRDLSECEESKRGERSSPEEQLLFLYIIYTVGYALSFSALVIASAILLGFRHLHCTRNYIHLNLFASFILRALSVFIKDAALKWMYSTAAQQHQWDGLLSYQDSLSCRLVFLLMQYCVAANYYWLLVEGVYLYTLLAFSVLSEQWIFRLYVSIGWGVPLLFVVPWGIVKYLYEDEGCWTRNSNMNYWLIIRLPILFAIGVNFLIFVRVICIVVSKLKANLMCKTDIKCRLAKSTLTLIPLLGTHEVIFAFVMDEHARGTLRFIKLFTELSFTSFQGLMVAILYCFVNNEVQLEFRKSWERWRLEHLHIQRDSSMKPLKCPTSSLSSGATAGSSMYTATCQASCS

Compound	Potency	activity change, negative = inhibition
NC(=S)NN=C(c1ccccc1)c1ccccc1	inconclusive [inhibitor, single point]	–
Cc1cc(C)n(C(=O)N(c2ccccc2)c2ccccc2)n1	inconclusive [inhibitor, single point]	–
Cc1ccc(Nc2nc(CSc3n[nH]c(N)n3)cs2)cc1	–	inactive: 1.51%
O=C(Nc1nc(-c2ccccn2)cs1)c1ccc2c(c1)OCCO2	inconclusive [inhibitor, partial curve, poor fit]	–
CCOc1ccc(NC(=O)CN(C)C(=O)c2cc(-c3ccco3)nc3ccccc23)cc1OCC	inconclusive [inhibitor, single point]	–
CN(C)c1ccc(C(=S)N2CCN(c3ccccc3)CC2)cc1	inconclusive [inhibitor, partial curve, poor fit]	–
NC(=O)CC(NC(=O)Cc1cccc2ccccc12)c1ccc(N2CCc3ccccc3C2)c([N+](=O)[O-])c1 (configuration not stated)	–	inactive: -48.2%
COCCN(CCOC)c1nc(-c2ccc(Cl)cc2)nc2ccccc12	inconclusive [inhibitor, partial curve, poor fit]	–
Cc1ccccc1NCc1nc2ccccc2n1CCOc1ccccc1	inconclusive [inhibitor, single point]	–
C=CCn1cc(CN2CCC(C(=O)Nc3cccc(-c4cccc(F)c4)c3)CC2)c(C)n1	inconclusive [inhibitor, partial curve, poor fit]	–
Cc1cccc(OCCCn2c(CCNC(=O)C(C)C)nc3ccccc32)c1	inconclusive [inhibitor, partial curve, poor fit]	–
COc1ccccc1N1CCN(CCCn2c(=S)[nH]c3ccccc3c2=O)CC1	inconclusive [inhibitor, single point]	–
CN1CCC/C1=C1/C(=O)N(c2ccccc2)N=C1NC(=O)Nc1cccc(Cl)c1	inconclusive [inhibitor, full curve, poor fit]	–
CN(c1ccc(Cl)cc1)c1cc2c(c3c1ccn3C)C1CCC2C1 (configuration not stated)	inconclusive [inhibitor, single point]	–
CCC(C)NC(=S)Nc1ccc2nc(N3CCOCC3)cc(C)c2c1 (configuration not stated)	–	inactive: -3.25%
O=C(NCc1cccc(F)c1)c1cccc2c1C(=O)c1ccc(N3CCCC3)cc1S2(=O)=O	–	inactive: -5.52%
N/C(=N\OC(=O)c1cnn(-c2ccccc2)c1C(F)(F)F)c1cc(C(F)(F)F)cc(C(F)(F)F)c1	inconclusive [inhibitor, single point]	–
CCOC(=O)C1=C(C)N=C2SC(C)C(=O)N2C1c1cccc(F)c1 (configuration not stated)	inconclusive [inhibitor, partial curve, poor fit]	–
O=C1CSC(=S)N1Cc1cccnc1	active: 2.82 µM	–
O=C(C1CC2CCC1C2)N1CCN(Cc2ccc3c(c2)OCO3)CC1 (configuration not stated)	inconclusive [inhibitor, partial curve, poor fit]	–
O=C(NC(c1ccc(-c2ccccc2)cc1)c1cnccn1)C1CCN(Cc2ccc(Oc3ccccc3)cc2)CC1 (configuration not stated)	active: 3.98 µM	–

Compound	Potency	activity change, negative = inhibition
Fc1ccc(CN2CC[C@H]3C=CCc4cccc(c43)C2)cc1	inconclusive [inhibitor, partial curve, poor fit]	–
Cc1ccc(-n2nnnc2SC(C)C(=O)Nc2ccccc2-c2ccccc2)cc1 (configuration not stated)	inconclusive [inhibitor, partial curve, poor fit]	–
CC[C@@H]1C(c2cccc(Cl)c2)=NN(c2ccc(Br)cc2)[C@H]1C(=O)N1CCOC1=O	inconclusive [inhibitor, single point]	–
CC1CCCN(CCC(=O)Nc2ccc(F)c(F)c2)C1 (configuration not stated)	inconclusive [inhibitor, single point]	–
CCOc1cnc(-c2c(-c3c(F)cccc3Cl)noc2C)o1	inconclusive [inhibitor, single point]	–
Cc1ccc2c(c1)N(C(=O)N1CCC(C(=O)NCc3ccccc3F)CC1)CC(C)O2 (configuration not stated)	–	inactive: 6.12%
COc1ccc(OCc2cccc(C(=O)N3CCCC3)c2)cc1	inconclusive [inhibitor, single point]	–
CC(C)NC(=O)c1c(O)c2ccccc2[nH]c1=O	inconclusive [inhibitor, single point]	–
Nc1c(C(=O)c2ccccc2)sc(Nc2ccc(Cl)c(Cl)c2)c1C(=O)Nc1ccccc1	inconclusive [inhibitor, single point]	–
Cc1cccc(COC[C@H](CC(C)C)N2CCN(C(=O)c3ccc(C(C)(C)C)cc3)CCC2=O)c1	inconclusive [inhibitor, partial curve, poor fit]	–
Cc1ccc2occ(/C=C/C(=O)c3ccccc3O)c(=O)c2c1	–	inactive: -8.85%
COc1ccc(CC(=O)N/N=C/c2c(C)n(C)c3ccccc23)cc1OC	inconclusive [inhibitor, partial curve, poor fit]	–
Cc1nc2nc(SCc3ccccc3)[nH]n2c(=O)c1C	–	inactive: 13.4%
COc1cc(NC(=O)C2CCN(S(=O)(=O)c3cccs3)CC2)cc(OC)c1	inconclusive [inhibitor, single point]	–
CCCN1CCC(N(CCc2ccccc2)Cc2ccccc2)CC1	inconclusive [inhibitor, full curve, poor fit]	–
O=C(NCC(O)c1ccc([N+](=O)[O-])cc1)C(c1ccccc1)c1ccccc1 (configuration not stated)	inconclusive [inhibitor, single point]	–
FC(F)(F)c1nc(-c2ccccc2)ncc1-c1nnnn1-c1ccccc1	inconclusive [inhibitor, single point]	–
COC(=O)c1cc(NC(=O)Cc2ccccc2[N+](=O)[O-])ccc1Cl	inconclusive [inhibitor, single point]	–
Cc1nc(-c2ccc(F)cc2)sc1CCNC(=O)c1ccc(C(C)(C)C)cc1	inconclusive [inhibitor, partial curve, poor fit]	–
Cc1ccc(Cl)cc1NS(=O)(=O)c1ccc(N2CCCCS2(=O)=O)cc1	–	inactive: -5.93%
Cc1ccc(-c2nnc(SCC(=O)N/N=C/c3ccc(C)s3)n2-c2ccccc2)cc1	inconclusive [inhibitor, full curve, poor fit]	–

Compound	Potency	activity change, negative = inhibition
O=C(O)c1ccccc1C(=O)NCc1c(Cl)cccc1Sc1ccc(Cl)cc1	inconclusive [inhibitor, single point]	–
O=C(CSc1cccc[n+]1[O-])c1cccs1	inconclusive [inhibitor, partial curve, poor fit]	–
CC[C@H](C)[C@H]1CNC(=S)N1CC1CCN(CC2CCC(C)CC2)CC1 (some centres not stated)	–	inactive: -25.5%
O=C(COc1ccc(Br)cc1)NNC(=O)c1cc(S(=O)(=O)N2CCOCC2)ccc1Cl	inconclusive [inhibitor, partial curve, poor fit]	–
O=C(N/N=C/c1cn(-c2ccccc2)nc1-c1cc2ccccc2o1)c1c[nH]c2ccccc12	inconclusive [inhibitor, partial curve, poor fit]	–
Cc1ccc(-c2cc(C(F)F)nc(N3CCOCC3)n2)cc1	inconclusive [inhibitor, partial curve, poor fit]	–
COC(=O)c1c(-c2ccccc2OC)sc2ccccc12	inconclusive [inhibitor, partial curve, poor fit]	–
COc1ccccc1-c1nnc(C2CCN(S(=O)(=O)c3ccc(F)c(C)c3)CC2)o1	inconclusive [inhibitor, partial curve, poor fit]	–
O=C(COc1ccc(F)cc1)Nc1ccc(Cl)c(-c2nc3ccccc3[nH]2)c1	inconclusive [inhibitor, single point]	–
CCc1ccc(NC(=O)c2cc(S(=O)(=O)N3CCCC3)c[nH]2)cc1	inconclusive [inhibitor, single point]	–
COc1ccc(OC)c(Nc2cc3ccccc3c(=O)[nH]2)c1	inconclusive [inhibitor, full curve, poor fit]	–
COC(=O)c1cc(S(=O)(=O)NCC2CCN(Cc3ccc(Cl)cc3)CC2)c[nH]1	inconclusive [inhibitor, single point]	–
Cc1ccc(-n2nnc3ccccc3c2=O)cc1C	inconclusive [inhibitor, single point]	–
COc1ccc(CN2CCN(c3ncnc4scc(-c5ccc(F)cc5)c34)CC2)cc1	–	inconclusive: -91.1% [inhibitor]
Cc1nc2nc(SCC(=O)NCCCN3CCCC(C)C3)nn2c(C)c1Cc1ccccc1Cl (configuration not stated)	inconclusive [inhibitor, partial curve, poor fit]	–
Cc1ccc(S(=O)(=O)Nc2ccc(N3CCCCC3)cc2)cc1	inconclusive [inhibitor, partial curve, poor fit]	–
CC(CCc1ccccc1)N1CCN(Cc2ccccc2)CC1 (configuration not stated)	–	inactive: -13.4%
CCCCNc1c(-c2ccc(SC(C)CC)c(OC)c2)nc2ccc(C)cn12 (configuration not stated)	inconclusive [inhibitor, full curve, poor fit]	–
CCC1CCCCN1C(=O)c1cc(-c2ccc(Cl)c(Cl)c2)on1 (configuration not stated)	inconclusive [inhibitor, single point]	–
COc1ccccc1CNC(=O)CN1C(=O)NC(Cc2ccccc2)(c2ccccc2)C1=O (configuration not stated)	inconclusive [inhibitor, partial curve]	–
